In a collection of fitness landscapes (doi:10.1126/science.1257360) one finds enrichment ratio data, which are given here for 195 variants.

B1: PhoQ; a variant is named by its letters at X, in order, P23837 (parent)
chain: MKKLLRLFFPLSLRVRFLLATAAVVLVLSLAYGMVALIGYSVSFDKTTFRLLRGESNLFYTLAKWENNKLHVELPENIDKQSPTMTLIYDENGQLLWAQRDVPWLMKMIQPDWLKSNGFHEIEADVNDTSLLLSGDHSIQQQLQEVREDDDDAEMTHSVAVNVYPATSRMPKLTIVVVDTIPVELKSSYMVWSWFIYVLSANLLLVIPLLWVAAWWSLRPIEALAKEVRELEEHNRELLNPATTRELTSLVRNLNRLLKSERERYDKYRTTLTDLTHSLKTPLXXLQXXLRSLRSEKMSVSDAEPVMLEQISRISQQIGYYLHRASMRGGTLLSRELHPVAPLLDNLTSALNKVYQRKGVNISLDISPEISFVGEQNDFVEVMGNVLDNACKYCLEFVEISARQTDEHLYIVVEDDGPGIPLSKREVIFDRGQRVDTLRPGQGVGLAVAREITEQYEGKIVAGESMLGGARMEVIFGRQHSAPKDE

This is one part of the list.

In this experiment the parent is B1. The experiment can be described thus: enrichment ratio after two sorts for PhoP signalling (ratio (wild type AVST 3.29)); higher = more functional. Particulars: with PhoP (E. coli).
With FLRV, the enrichment ratio is at most 0.25. As for MQWV, the figure is at most 0.25; as for DYQQ, at most 0.25. As for YFRM, the figure is at most 0.25. As to AHFG, the enrichment ratio is at most 0.25. For AMKI the value was at most 0.25. As for NRRW, the figure is at most 0.25. As for KVAT, the enrichment ratio is at most 0.25. As for NWAE, the figure is at most 0.25. On to RFNK, for which the enrichment ratio was at most 0.25. As to IQRP, the enrichment ratio is at most 0.25. As for FSFG, the figure is at most 0.25; as for YFPV, at most 0.25. Take LMHF: the enrichment ratio was at most 0.25.

Consider HFRK, for which the enrichment ratio was at most 0.25. For the variant AMGT, the enrichment ratio is at most 0.25. Regarding GQHH, the enrichment ratio is at most 0.25. As for LRMR, the enrichment ratio is at most 0.25. As to MHPS, the enrichment ratio is at most 0.25. Take KVAQ: the enrichment ratio was at most 0.25. For WFDY, the enrichment ratio was at most 0.25. For the variant PSGK, the enrichment ratio was at most 0.25. For APQE the value was at most 0.25.

Turning to FLIF, the enrichment ratio was at most 0.25. For NRVR, the enrichment ratio was at most 0.25.

Regarding KPMS, the enrichment ratio was at most 0.25.

For the variant CSSS, the enrichment ratio was at most 0.25. For SKSR the value was at most 0.25; for QRDM, at most 0.25. Take SSQG: the enrichment ratio came out at 6.44. As for EHDN, the figure is at most 0.25; as for QINA, at most 0.25. Turning to MKVH, the enrichment ratio is at most 0.25. As to KPNL, the enrichment ratio was at most 0.25. On to SELM, for which the enrichment ratio worked out at 15.6. As for PHLK, the figure is at most 0.25; as for REME, at most 0.25. WKSY: the enrichment ratio was at most 0.25.

For the variant YWDG, the enrichment ratio is at most 0.25.

As to PTYW, the enrichment ratio was at most 0.25. Consider QKSD, for which the enrichment ratio was at most 0.25.

For the variant LNGK, the enrichment ratio is at most 0.25. Take TWWF: the enrichment ratio was at most 0.25. Take VIHY: the enrichment ratio was at most 0.25.

In the case of ESMS, the enrichment ratio is at most 0.25. For NVFE the value was at most 0.25; for IPKA, at most 0.25; for RSRL, at most 0.25. For KFVC the value was at most 0.25; for DRTR, at most 0.25. Regarding EDDW, the enrichment ratio is at most 0.25. Turning to SWKG, the enrichment ratio was at most 0.25. Consider YDEC, for which the enrichment ratio is at most 0.25. Turning to WDAT, the enrichment ratio is at most 0.25. Take QPLI: the enrichment ratio is at most 0.25. As to TMTN, the enrichment ratio came to 13.4. Consider IMLL, for which the enrichment ratio was at most 0.25.

NMHI: the enrichment ratio was at most 0.25. As for LMDK, the enrichment ratio is at most 0.25. TYKH: the enrichment ratio is at most 0.25. Consider THPD, for which the enrichment ratio was at most 0.25. Consider FRES, for which the enrichment ratio is at most 0.25.

Consider TKLY, for which the enrichment ratio is 16.4. In the case of SYMF, the enrichment ratio is at most 0.25.

Regarding YDGV, the enrichment ratio was at most 0.25. As to LYML, the enrichment ratio is at most 0.25. Regarding WMEF, the enrichment ratio is at most 0.25. On to CDFY, for which the enrichment ratio is at most 0.25. On to VGCW, for which the enrichment ratio is at most 0.25.

With WHFK, the enrichment ratio is at most 0.25.

Consider PAMH, for which the enrichment ratio is at most 0.25.

On to AAIC, for which the enrichment ratio was at most 0.25. Take EVAW: the enrichment ratio was at most 0.25. HPRI: the enrichment ratio is at most 0.25.

Turning to PLQS, the enrichment ratio is at most 0.25. On to DEID, for which the enrichment ratio is at most 0.25.

Take YKWD: the enrichment ratio is at most 0.25.

Turning to YYGF, the enrichment ratio was at most 0.25. Turning to RDIP, the enrichment ratio was at most 0.25. As for RCQM, the figure is at most 0.25; as for DNQG, at most 0.25; as for HDIP, at most 0.25. In the case of MCFH, the enrichment ratio was at most 0.25. As for PLDR, the figure is at most 0.25; as for FMYG, at most 0.25; as for DRAR, at most 0.25.

In the case of VSAC, the enrichment ratio is at most 0.25.

As to MVAR, the enrichment ratio stood at 1.57. For KGYS, the enrichment ratio is at most 0.25. MRTW: the enrichment ratio was at most 0.25. On to TTFS, for which the enrichment ratio worked out at 0.795.

Regarding WMPL, the enrichment ratio was at most 0.25. As for IQYL, the enrichment ratio is at most 0.25. As to RVED, the enrichment ratio was at most 0.25. With DQWP, the enrichment ratio was at most 0.25. On to ERMN, for which the enrichment ratio is at most 0.25.

For KSSE, the enrichment ratio is at most 0.25. As for CNSS, the enrichment ratio was at most 0.25. Regarding TRHR, the enrichment ratio is at most 0.25.

For the variant HCKK, the enrichment ratio is at most 0.25. For PSTW the value was at most 0.25. For PMEA the value was at most 0.25. With GKQL, the enrichment ratio was at most 0.25. For the variant IPIQ, the enrichment ratio is at most 0.25. For the variant AKGS, the enrichment ratio is at most 0.25. As for TCAQ, the figure is 15.5; as for FPPT, at most 0.25; as for EHAP, at most 0.25. As to EMLL, the enrichment ratio is at most 0.25.

For the variant ANQM, the enrichment ratio is at most 0.25. VTTP: the enrichment ratio is at most 0.25. With NDLP, the enrichment ratio is at most 0.25.

Regarding VLVD, the enrichment ratio is at most 0.25. In the case of MCWM, the enrichment ratio came out at 16.4.

For the variant KIFK, the enrichment ratio was at most 0.25. IKRS: the enrichment ratio is at most 0.25. As for RCNG, the figure is at most 0.25.

In the case of MEVY, the enrichment ratio turned out to be 6.01. Take DRQI: the enrichment ratio is at most 0.25. As for VCKI, the figure is at most 0.25. On to LHVS, for which the enrichment ratio was at most 0.25.

Regarding NDSH, the enrichment ratio was at most 0.25. As for LYQK, the figure is at most 0.25; as for WLFL, at most 0.25.

For IKNG, the enrichment ratio was at most 0.25. Regarding LVKG, the enrichment ratio is at most 0.25.

For the variant LDMI, the enrichment ratio is at most 0.25. As for FKGI, the figure is at most 0.25; as for WFWW, at most 0.25; as for IQMY, at most 0.25. For LNKW, the enrichment ratio was at most 0.25. TKNH: the enrichment ratio was 11.4.

With GQWF, the enrichment ratio is at most 0.25.

For SRFH, the enrichment ratio is at most 0.25.

For HEGS, the enrichment ratio is at most 0.25. For WMIL, the enrichment ratio is at most 0.25. Regarding NEFP, the enrichment ratio was at most 0.25. Take PYNG: the enrichment ratio was at most 0.25.

On to IEIC, for which the enrichment ratio is at most 0.25.

Take NHIE: the enrichment ratio is at most 0.25. Consider WKRK, for which the enrichment ratio is at most 0.25. For YQAL the value was at most 0.25. Turning to NGYK, the enrichment ratio was at most 0.25. Turning to GEFH, the enrichment ratio was at most 0.25.

With SQVD, the enrichment ratio is at most 0.25.

For LGSE, the enrichment ratio was at most 0.25. In the case of QYDI, the enrichment ratio was at most 0.25. In the case of ITAY, the enrichment ratio was at most 0.25. As for DPAK, the figure is at most 0.25; as for HHRL, at most 0.25; as for HIIV, at most 0.25.

YWIF: the enrichment ratio was at most 0.25. For the variant YSNF, the enrichment ratio was at most 0.25. As to FTWS, the enrichment ratio was at most 0.25. Consider FIPV, for which the enrichment ratio was at most 0.25.

For WGRW, the enrichment ratio is at most 0.25.

In the case of AIGM, the enrichment ratio is 8.76.

As for KLWP, the enrichment ratio is at most 0.25. Consider MSFV, for which the enrichment ratio amounted to 6.53. As to PSPE, the enrichment ratio was at most 0.25. In the case of SVTP, the enrichment ratio is at most 0.25. Take NWIR: the enrichment ratio is at most 0.25. As to LQEH, the enrichment ratio is at most 0.25. For the variant PNGK, the enrichment ratio was at most 0.25. For HEWW the value was at most 0.25; for FKET, at most 0.25.

As to PQKF, the enrichment ratio was at most 0.25. For EFAE, the enrichment ratio was at most 0.25.

Regarding EDVT, the enrichment ratio was at most 0.25. Consider SSNQ, for which the enrichment ratio stood at 1.31. As for VGSL, the figure is 0.336; as for VIHM, at most 0.25.

Turning to LAST, the enrichment ratio was at most 0.25. On to MWFH, for which the enrichment ratio was at most 0.25. As to NTWP, the enrichment ratio was at most 0.25. As for ALYI, the enrichment ratio is at most 0.25. For FGLA the value was 12.2; for WFKK, at most 0.25; for YGDF, at most 0.25. For QICY the value was at most 0.25. In the case of IENG, the enrichment ratio is at most 0.25. MSHR: the enrichment ratio was at most 0.25. Turning to FAVD, the enrichment ratio was at most 0.25. Turning to KFSH, the enrichment ratio was at most 0.25.

For GRAG, the enrichment ratio is at most 0.25. With SVKN, the enrichment ratio is at most 0.25.

As for VIHF, the enrichment ratio was at most 0.25. In the case of DDDG, the enrichment ratio was at most 0.25. On to DTSW, for which the enrichment ratio was at most 0.25. Turning to FVSW, the enrichment ratio was at most 0.25. Turning to HRVT, the enrichment ratio is at most 0.25. As for SLWS, the enrichment ratio is at most 0.25. Regarding VNYF, the enrichment ratio was at most 0.25. On to QSMF, for which the enrichment ratio was at most 0.25. With YANA, the enrichment ratio is at most 0.25.
